In PubChem BioAssay AID1508623 (National Center for Advancing Translational Sciences (NCATS), 2021):
About 450 (0.94%) of roughly 48,000 compounds were called active. Another 19% or so got no clear call; they are omitted. The call rests on the fitted dose curve; in most records, active means well fitted inhibition curve with a large enough effect; inconclusive means small, poorly fitted or top-dose-only effect; inactive means no such curve, though single readings can be large or run the other way. This is one part of the list.

Experiment: Primary qHTS for Identification of Small Molecule Inhibitors of Huntingtin Promoter Activity; further: nearly all actives have a fitted effect of over 50% in size
Conditions: HEK293 HTT promoter firefly luciferase reporter (activity 0% = vehicle and -100% = no light), 24 h; series mostly up to 57.5 µM; activity change, negative = inhibition: at the top concentration
How it was run: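 Quantitative HTS used concentration series of up to 57.5 uM final on HEK293 luciferase reporter cells, 24 h at 37 degrees C. Readout was Dual-Glo firefly luminescence.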

Activity change, negative = inhibition, inactive:
COc1ccccc1N1CCN(C2C(=O)c3ccccc3N2C(C)=O)CC1 (stereo not drawn) -31.1%, Cc1ccc(-c2cn3c(n2)sc2cc(C(=O)NCCC4=CCCCC4)ccc23)c(C)c1 29.1%, CCOc1ccc(S(=O)(=O)NCC(c2ccc(N(C)C)cc2)N2CCCC2)cc1 (stereo not drawn) -0.0955%, CCOc1ccc(-c2nnc(SCC(=O)Nc3ccccc3C(F)(F)F)o2)cc1 -28.6%, Cc1cccc(C)c1NC(=O)c1cc(S(N)(=O)=O)c(Cl)cc1O 10.2%, CCOc1ccc(OCC)c(NC(=O)c2nnn(Cc3cc(Br)ccc3OC)c2N)c1 -12.8%, COCCCNC(=O)c1cn(CC(C)C)c(=O)c2c1c1ccccc1n2C -5.34%, COCCn1c(CNC(=O)c2cccc(N(C)C)c2)nc2cccnc21 44.7%, Cc1ccc(NC(=O)c2nc(S(C)(=O)=O)ncc2N(Cc2ccco2)Cc2ccccc2F)c(C)c1 -23.6%, CCN(Cc1ccccc1)C(=O)CCS(=O)(=O)c1cc2c(cc1Cl)NC(=O)CO2 -8.29%, CCCOc1ccc(C2c3c(oc4ccccc4c3=O)C(=O)N2c2ccc(C)cn2)cc1OCC (stereo not drawn) -0.151%, Cc1nc2ccccn2c(=O)c1CCN1CCC(C(=O)c2ccc(F)cc2)CC1 -7.52%, Cc1ccc(CCNC(=O)c2ccc3c(=O)n(-c4ccc(C)cc4)c(=O)[nH]c3c2)cc1 1.73%, CCOc1cccc2sc(NC(=O)c3ccc(S(=O)(=O)N4CCCc5ccccc54)cc3)nc12 -23.4%, Cc1ccccc1S(=O)Cc1ccc(C(=O)NC2CCCCCC2)o1 (stereo not drawn) -20.1%, COc1ccc2oc(=O)c(-c3nc(-c4cc(OC)c(OC)c(OC)c4)no3)cc2c1 4.51%, O=C(CNS(=O)(=O)c1cccs1)N1CCN(c2ccccc2Cl)CC1 79.8%, CCC(=O)c1ccc2c(c1)N(CCCN(C)C)c1ccccc1S2 -6.2%, O=C(Cn1cc(SCc2cccc(F)c2)c2ccccc21)N1CCCC1 0.792%, Cc1ccc2c(CNCc3cccc(Cl)c3)c(C(=O)O)n(Cc3ccc(F)cc3Cl)c2c1 -5.03%, Cc1cc2oc(C(=O)Nc3sc4c(c3C(=O)NCc3ccco3)CCC4)cc(=O)c2cc1C -22.9%, Cc1ccc(C(=O)Nc2ccc3nc(SCC(=O)N4CCc5ccccc54)sc3c2)cc1 -0.84%, COc1ccc(N2CCN(C(=O)c3cnc(N4CCCC4)nc3C)CC2)cc1 -7.86%, CCC(Sc1nc2ccccc2c2nc(CCc3c(C)n[nH]c3C)nn12)C(=O)Nc1ccc(F)cc1 (stereo not drawn) -5.7%, Cc1c(Cl)cccc1NC(=O)N1CCC(CN2CCCC2)CC1 -16.1%, COc1cccc(-n2nnc3c(sc4nc(C)cc(C)c43)c2=O)c1 17.3%, O=C(Nc1sc2c(c1C(=O)Nc1ccccc1Cl)CCCC2)c1ccccc1F 7.8%, COC(=O)c1c(NC(=O)c2cc(=O)c3ccc(C)c(C)c3o2)sc2c1CCCC2 10.1%, O=C(NCc1ccccc1Br)C1CCCN(C(=O)N2CCOc3ccccc32)C1 (stereo not drawn) -25.9%, CCCCN(CCCC)CC(O)c1cc(Cl)cc2c1-c1ccc(Cl)cc1C2=Cc1ccc(Cl)cc1 (stereo not drawn) -8.38%, COc1ccc(-c2cc3nc(-c4ccccc4)cc(C(F)(F)F)n3n2)cc1 -8.77%, COc1ccc(CCNC(=O)Cc2c(C)c3c(cc(C)c4c(C)coc43)oc2=O)cc1 0.467%, COC(=O)c1cc(NC(=O)c2oc(=O)c3ccccc3c2-c2ccccc2)cc(C(=O)OC)c1 -7.57%, Cc1ccc(NC(=O)CN2C(=O)CSc3ccc(S(=O)(=O)N4CCCC4)cc32)cc1F -10.1%, Cc1ccc(NC(=O)c2c(NC(=O)c3ccco3)sc3c2CCC(C(C)(C)C)C3)c(C)c1 (stereo not drawn) -20% [at 11.5 µM], O=C(Cc1ccc(F)cc1)NC1CC(=O)N(c2ccc3c(c2)OCCO3)C1 (stereo not drawn) -11.7%, COc1cccc(-c2cn3c(n2)sc2cc(C(=O)NC4CCCCCC4)ccc23)c1 -10.2%, COc1ccc(Br)cc1CNC(=O)Cn1c(=O)c2cccn2c2ccc(F)cc21 3.8%, Cc1cc(C)c2oc(-c3cccc(NC(=O)c4ccc(Br)o4)c3)nc2c1 -8.08%, CCC(C)c1ccc(OCC(=O)Nc2cccc(-c3nc4ncccc4o3)c2)cc1 (stereo not drawn) 15.7%, CCOc1ccc(NC(=O)c2oc3ccccc3c2NC(=O)Cc2ccc(F)cc2)cc1 -4.83%, Cc1ccccc1NC(=O)CCC(=O)N1CCSc2ccccc21 -15.4%, CC(=O)N1c2ccc(S(=O)(=O)NCC3CCC(C(=O)NC(C)(C)C)CC3)cc2CC1C (stereo not drawn) -3.16%, O=C(NCC(c1cccs1)S(=O)(=O)c1cccs1)c1ccccc1F (stereo not drawn) 2.07%, Clc1ccccc1N1CCN(c2ncnc3c2c(-c2ccccc2)cn3-c2ccccc2)CC1 -28%, CCN(CC)c1nn2c(=O)c(C(=O)NCc3ccc(OC)cc3OC)cnc2s1 -0.661%, COc1ccccc1CNC(=O)c1ccccc1NC(=O)c1nsc2ccccc12 17.4%, Cc1ccc(-n2nc3ccc(NC(=O)c4oc5ccccc5c4C)cc3n2)cc1 14.7%, CCOC(=O)c1[nH]c2ccccc2c1NC(=O)c1ccccc1OCC -29.7%, CCN(C(=O)c1noc2c1COc1ccc(C)cc1-2)c1cccc(C)c1 -15.2%, CCOc1ccc(-c2nnc(SCC(=O)NC3CCCC3)nc2-c2ccc(OCC)c(OC)c2)cc1OC 4.83%, O=C(NCCCN1CCN(c2ccccc2)CC1)c1nnc(Cc2c(F)cccc2Cl)o1 -26.2%, CCOc1ccc(CCNC(=O)C2CCN(c3ncnc4c3nc3n4CCCCC3)CC2)cc1 -30.6%, CCOC(=O)C1CCN(C(=O)c2cc3ccc4cccnc4c3[nH]2)CC1 34.7%, Nc1c(C(=O)Nc2ccccc2Cl)c2ccccn2c1C(=O)c1ccc(Cl)cc1 -2.16%, COc1ccc(NC(=O)CSc2nc3c([nH]c4ccccc43)c(=O)n2C)cc1 -2.02%, Cc1ccc(CNC(=O)CSc2ncc(S(=O)(=O)c3ccc(Br)cc3)c(=O)[nH]2)cc1 4.96%, COc1ccc(NS(=O)(=O)c2ccc3c(c2)C(C(C)C)C(=O)N3)cc1 (stereo not drawn) -25.1%, CCc1nn(CC(=O)NCCC(C)C)c(=O)c2cc3occc3n12 -7.14%, CC1(C)S[C@@H]2[C@H](NC(=O)[C@H](N)c3ccccc3)C(=O)N2[C@H]1C(=O)O 6.57%, CCn1c(C)c(C2N3CC4(C)CN2CC(CC)(C3)C4=O)c2ccccc21 (stereo not drawn) -5.04%, Cc1ccc(CNC(=O)C(=O)NCC(c2cccs2)S(=O)(=O)c2ccc(C)cc2)cc1 (stereo not drawn) -46.8%, COC(=O)c1sccc1S(=O)(=O)N(CC(=O)NCc1ccccc1)c1ccccc1 -12.1%, Cc1c(C(=O)N2CCC(C)CC2)c(S(=O)(=O)NCc2ccccc2)c(C)n1C -14.5%, Cc1nn(C(=O)c2ccccc2F)c(C)c1S(=O)(=O)N1CCOCC1 -13%, COc1ccc(Nc2ncnc3c2cnn3-c2ccc(C)cc2C)cc1 24.4%, CC(=O)c1cccc(NC(=O)Cn2c(=O)c(CNc3ccc(C)cc3)cc3cc4c(cc32)OCCO4)c1 -9.67%, CCOc1ccccc1NS(=O)(=O)c1c(C)nc2sccn2c1=O -10.3%, CCn1c(=O)c2cc(C(=O)N(CCCOC(C)C)Cc3ccco3)sc2c2ccccc21 -31.5%, Cc1ccc(-c2sc(C(=O)Nc3ccc(Br)cc3)cc2CC(=O)O)cc1 -3.58%, Cc1cc(C)c(NC(=O)Cn2c(SCC(=O)NCc3ccccc3)nc3ccccc32)c(C)c1 0%, COc1cccc(CNC(=O)C2CCN(S(=O)(=O)c3ccc4c(ccn4C)c3)CC2)c1 -24.6%, COc1ccc(-c2cn3cccnc3n2)cc1NC(=O)c1c(F)cccc1F 5.17%, CSc1ccc(C2c3[nH]c4ccccc4c3CCN2C(=O)CCc2ccccc2)cc1 (stereo not drawn) -26.6%, COc1cc(Cl)c(C)cc1NC(=O)CCn1c(=O)c2cccn2c2cccnc21 -0.0841%, CCOC(=O)[C@H](CCc1ccccc1)N[C@@H](C)C(=O)N1CCCC1C(=O)O (stereo partly drawn) 8.42%, CC(C)c1nc2ccc(C(=O)NCc3ccc(N(C)C)cc3)cc2o1 -18%, Cc1ccc(-n2nc3c(=O)n(CCCC(=O)NCCc4ccccc4)nc(C)c3c2C)cc1 -3.44%, Cc1cccc(CCNC(=O)CCS(=O)(=O)c2cc3c(cc2Cl)NC(=O)CO3)c1 -15.1%, COc1ccc(C)cc1Nc1nc2ccccc2c2nnc(C)n12 -7.52%, CCOc1ccc(CNC(=O)CCC(=O)N2CC3CCCN3c3ccccc32)cc1 (stereo not drawn) 10.8%, CCN1CCN(C(c2cccc(F)c2)c2c(O)cc(C)n(CCOC)c2=O)CC1 (stereo not drawn) -12.1%, COc1ccc(Cl)cc1NC(=O)c1cc(S(=O)(=O)N2CCC(C)CC2)cn1C -7.46%, CCc1nc2cccnc2n1-c1ccc(CC(=O)Nc2ccccc2Cl)cc1 -30.7%, Cc1cccc(NC(=O)CSc2nc3c(oc4ccccc43)c(=O)n2Cc2ccco2)c1 -14.3%, C=C[C@H]1CN2CC[C@H]1C[C@H]2[C@H](O)c1ccnc2ccc(OC)cc12 12.8%, CC(C)C(=O)Nc1ccc2nc(SCC(=O)N3CCOCC3)sc2c1 1.83%, Cc1ccc(C)n1-c1nnc(N2CCC(C(=O)NCc3ccc(F)cc3)CC2)s1 -27.7%, CCOC(=O)c1c(N)n(-c2ccccc2CC)c2nc3ccccc3nc12 2.18%, Cc1ccc(N2CC(c3nnc(NC(=O)c4ccco4)s3)CC2=O)cc1Cl (stereo not drawn) -7.06%, O=S(=O)(c1ccc(Br)cc1)c1nnn2c1nc(NC1CCCCCC1)c1sccc12 -7.2%, CCC(=O)Nc1sc2c(c1C(=O)Nc1ccccc1C)CCC(C)C2 (stereo not drawn) -22.3%, Cn1c(=O)c2sccc2n2c(CCC(=O)N3CCN(c4ccccc4)CC3)nnc12 0.96%, Cc1ccc(-n2nc3ccc(NC(=O)c4cc5ccccc5o4)cc3n2)cc1 31.5%, O=C(O)c1cc(=O)[nH]c(=O)[nH]1, COC(=O)c1ccccc1NC(=O)c1noc2c1CSc1ccccc1-2 -6.98%, COc1ccc2nc(NC(=O)c3ccc(S(=O)(=O)N4CCC(C)CC4)cc3)sc2c1 -28.2%, CCc1ccc(NC(=O)N2CCN(Cc3cc(=O)n4nc(-c5ccccc5OC)sc4n3)CC2)cc1 0.505%
